Test results as given in the DeepSol protein solubility set.

Assay: soluble on expression in E. coli; label from the status in PepcDB or PDB records

Row | Sequence | soluble on expression in E. coli
1 | MKLLEQIEKWAAETPDQTAFVWRDAKITYKQLKEDSDALAHWISSEYPDDRSPIMVYGHMQPEMIINFLGCVKAGHAYIPVDLSIPADRVQRIAENSGAKLLLSATAVTVTDLPVRIVSEDNLKDIFFTHKGNTPNPEHAVKGDENFYIIYTSGSTGNPKGVQITYNCLVSFTKWAVEDFNLQTGQVFLNQAPFSFDLSVMDIYPSLVTGGTLWAIDKDMIARPKDLFASLEQSDIQVWTSTPSFAEMCLMEASFSESMLPNMKTFLFCGEVLPNEVARKLIERFPKATIMNTYGPTEATVAVTGIHVTEEVLDQYKSLPVGYCKSDCRLLIMKEDGTIAPDGEKGEIVIVGPSVSVGYLGSPELTEKAFTMIDGERAYKTGDAGYVENGLLFYNGRLDFQIKLHGYRMELEEIEHHLRACSYVEGAVIVPIKKGEKYDYLLAVVVPGEHSFEKEFKLTSAIKKELNERLPNYMIPRKFMYQSSIPMTPNGKVDRKKLLSEVTALEHHHHHH | soluble
2 | MSVDPACPQSLPCFEASDCKESSPMPVICGPEENYPSLQMSSAEMPHTETVSPLPSSMDLLIQDSPDSSTSPKGKQPTSAENSVAKKEDKVPVKKQKTRTVFSSTQLCVLNDRFQRQKYLSLQQMQELSNILNLSYKQVKTWFQNQRMKSKRWQKNNWPKNSNGVTQKASAPTYPSLYSSYHQGCLVNPTGNLPMWSNQTWNNSTWSNQTQNIQSWSNHSWNTQTWCTQSWNNQAWNSPFYNCGEESLQSCMQFQPNSPASDLEAALEAAGEGLNVIQQTTRYFSTPQTMDLFLNYSMNMQPEDV | not soluble
